# Laboratory results: the supplement of paper PMC3334620
# In all, about 33,000 sequences were measured (“E-score (-0.5 to 0.5)”: median about -0.032, highest 2% from about 0.36 on). This is one part of the list.
# Target: T1, Sko1 (UniProt Q02100)
# T1 sequence: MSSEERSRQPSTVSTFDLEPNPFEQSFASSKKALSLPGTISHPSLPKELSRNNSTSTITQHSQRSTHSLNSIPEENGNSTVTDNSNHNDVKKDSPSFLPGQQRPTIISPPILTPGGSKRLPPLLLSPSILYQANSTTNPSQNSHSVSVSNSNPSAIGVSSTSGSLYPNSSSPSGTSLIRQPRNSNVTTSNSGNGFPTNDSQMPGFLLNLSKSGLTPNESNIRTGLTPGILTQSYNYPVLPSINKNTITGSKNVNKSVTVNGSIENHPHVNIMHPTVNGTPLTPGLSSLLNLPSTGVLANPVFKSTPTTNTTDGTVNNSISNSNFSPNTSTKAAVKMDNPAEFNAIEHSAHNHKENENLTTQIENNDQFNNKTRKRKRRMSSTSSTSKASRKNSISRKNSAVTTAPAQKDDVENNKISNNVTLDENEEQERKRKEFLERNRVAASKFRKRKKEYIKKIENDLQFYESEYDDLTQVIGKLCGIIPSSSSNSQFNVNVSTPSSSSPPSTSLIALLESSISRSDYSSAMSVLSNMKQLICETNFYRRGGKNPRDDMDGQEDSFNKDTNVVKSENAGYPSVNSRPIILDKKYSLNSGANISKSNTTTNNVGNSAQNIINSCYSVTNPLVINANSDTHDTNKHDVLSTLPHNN
# Test: PBM E-score (8-mer binding enrichment) (E-score (-0.5 to 0.5)); higher = stronger / more preferred TF binding; most listed sequences are background and not binding sites
# Details: protein concentration: 200 nM; construct: GST-full length
# Procedure, shortened: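 The E-score, a modified Wilcoxon-Mann-Whitney statistic, was computed by the Universal PBM Analysis Suite for every ungapped eight-base word pooled with its reverse complement. Scans behind it were normalised with masliner after bound GST-tagged yeast transcription factors were detected with fluorescent anti-GST. The proteins, at about 100-200 nM, had been applied to universal all-10-mer Agilent arrays made double-stranded by primer extension.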
row,Sequence,PBM E-score
1,AGCGGCAT,0.014
2,CCGACTAG,-0.303
3,AAATTTAT,0.218
4,CTTAATGA,0.0753
5,TTCACCAA,0.112
6,GTCCAGGA,-0.0496
7,GCATTTCC,-0.0507
8,GATCTTCC,-0.269
9,AATCACGG,0.0732
10,AGTATCAC,0.0187
11,ATGCGGAA,-0.145
12,CCACACGG,-0.206
13,GTCGTACA,0.0687
14,CGGCACAG,-0.158
15,GAGATTTA,0.0465
16,AACACTAC,0.246
17,AGAATCGC,0.0254
18,CACTATGC,0.0454
19,CCGCGAAA,-0.116
20,ACGCCAAA,0.0451
21,CAAAGCTA,0.063
22,AGCCGTGC,-0.209
23,ACTTAATA,0.24
24,GGATTGAC,0.118
25,ATACCGGC,-0.103

row,Sequence,PBM E-score
1,CTGTTTAA,-0.027
2,AATCGCAA,0.0307
3,AGTACGGG,-0.15
4,TAAGCTAA,0.211
5,CCTTCGTA,0.143
6,CTTTCGGC,-0.153
7,CACATCTG,-0.193
8,GTCGCCAC,-0.0967
9,AAGTAAAC,0.084
10,AAACAAAG,0.0681
11,ATGGATAC,0.0157
12,TCTGGTAA,-0.00416
13,AGGCACCG,-0.0605
14,GAGAGGCA,-0.221
15,CCACACCA,0.15
16,CGATAGTC,0.0804
17,TCATTTAA,0.191
18,CGTGGCAA,0.0075
19,GTACCGAC,-0.0426
20,AGAACTCT,-0.0315
21,ACTAAACC,-0.0844
22,ACGAGTGC,0.159
23,ATCGGCTA,0.00533
24,TATAACGA,0.186
25,CCCACCTA,-0.0313

row,Sequence,PBM E-score
1,CCGTTGAA,-0.137
2,CAGAATCC,-0.0689
3,CATATAGC,0.0785
4,CGCCACCA,-0.102
5,ATGGTTAC,0.31
6,GCGTAACC,0.328
7,ACAGTAAA,0.193
8,AAGGGCAG,-0.284
9,CGACTTAC,-0.0988
10,GGATTGGA,-0.122
11,GAGTGACC,-0.342
12,GGCAATTA,-0.00647
13,CTGCAGGA,-0.0277
14,CATACACG,0.248
15,GTAAGCGA,0.222
16,CCATAAAC,-0.0791
17,CAGGTAAG,-0.156
18,CGAGCTCA,-0.0532
19,AGGCGGTA,-0.19
20,AATAGCGT,0.256
21,TCCGAGAA,-0.0476
22,GAATGACA,0.249
23,GGTCCCAC,-0.0859
24,GGGTGGCA,-0.324
25,AAGAATGT,0.0867

row,Sequence,PBM E-score
1,CGACCCGA,-0.21
2,CCAGGCGG,-0.304
3,AGACGCGC,0.00774
4,AGGTCGAA,-0.0764
5,CAGCGAAA,-0.101
6,CACTTTAC,0.17
7,ATTAAGGC,-0.083
8,CGTCTAAC,0.192
9,CTAATCAA,0.156
10,AGGACGCC,-0.21
11,ATGGGGTG,-0.00552
12,GGTTACGA,0.0671
13,GTGGCCTA,-0.105
14,CCCTTTCA,-0.0484
15,ACATTATA,0.14
16,CTCTTCCA,-0.193
17,GCTAATAC,-0.0215
18,CACGGGGA,-0.289
19,ATTACAAG,0.164
20,ATGAATCA,0.0872
21,GACAAGTC,-0.322
22,TTGATAAA,0.208
23,ATAACGGG,0.00173
24,CCGTATCA,-0.0131
25,TAGGTTAA,0.0202

row,Sequence,PBM E-score
1,CAACCGCC,-0.131
2,CGGTTCCC,-0.335
3,CTCCAGAC,-0.13
4,GGGACAAA,-0.0851
5,CTTATGTC,0.159
6,TCCGTTAA,0.0364
7,AAGCGCTT,0.0852
8,CCGAGACA,-0.134
9,CCGTATAC,0.0259
10,ATCCGGTG,-0.0956
11,CATGGCCC,-0.157
12,ACTATTCA,0.0605
13,CTATAGCC,-0.164
14,CGGTGCAC,-0.273
15,CCGAAGGA,-0.167
16,CGGCACTC,-0.31
17,AGAGCTAC,-0.091
18,ATTCAGAA,0.0641
19,CACGATCC,-0.0812
20,AGGGGCCC,-0.144
21,GCACAAGC,-0.0721
22,CTAATTAG,0.222
23,TGATAGCA,0.0757
24,CTGTCCGC,-0.181
25,ATGTAAAT,0.246

row,Sequence,PBM E-score
1,AAATGATA,0.266
2,GACAACCC,-0.238
3,GACTTTCA,-0.137
4,AGCGGATG,-0.216
5,ATACACGG,-0.00094
6,CGCATACG,0.378
7,CCTTAAGG,-0.0977
8,ATCAGTCC,-0.326
9,GGGTTGAA,-0.202
10,ACCTGCGT,0.157
11,CGCTAGGA,-0.00632
12,GATGGGGA,-0.203
13,GAAGTAGC,-0.126
14,AACCACAT,0.222
15,GTGGCCAA,-0.0652
16,GGCCTTTA,-0.225
17,CAAAGCCG,-0.0969
18,GGGAATCA,-0.179
19,AAGGGACG,0.0537
20,TAAAGGCA,-0.0114
21,ACAAAAGT,0.149
22,CGAGTAGA,-0.131
23,ACAAAATC,0.0929
24,ACTTGATG,0.142
25,GCACATAA,0.137

row,Sequence,PBM E-score
1,CAGCGCCG,-0.22
2,CCCCTTCG,-0.171
3,CGGAGAAA,-0.132
4,CAGCAGAC,-0.206
5,CCAGGTAC,-0.118
6,AACCTGCC,-0.156
7,ACGTATCA,0.438
8,CCGTGTCC,-0.141
9,AACTAATA,0.336
10,CCAGGTAA,-0.122
11,TAGAGTAA,0.0763
12,GTTGGCAA,0.0427
13,AAGGTTCG,-0.0646
14,AGATCAAG,0.0987
15,GCCTAACC,-0.245
16,TATGTGAA,0.185
17,CAAAGTCC,-0.208
18,AAGAGTGC,-0.164
19,ACAAGTAT,0.0711
20,TCCCGAAA,-0.0277
21,AATCGCCA,-0.108
22,AGTGGTAT,0.00997
